Results published in PubChem BioAssay AID720542 (National Center for Advancing Translational Sciences (NCATS), 2013).
The campaign covered roughly 360,000 compounds. About 740 (0.21%) were called active. Inconclusive means that the source gave no clear call. Such entries were picked first, then a sample of the others. The call rests on the fitted dose curve; in most records, active means well fitted inhibition curve with a large enough effect; inconclusive means small, poorly fitted or top-dose-only effect; inactive means no such curve, though single readings can be large or run the other way. Potencies of inconclusive entries are left out as doubtful fits.

System: Plasmodium falciparum AMA1 (3D7) - RON2 peptide interaction
Experiment: qHTS for Inhibitors of AMA1-RON; Towards Development of Antimalarial Drug Lead: Primary Screen; further: nearly all actives have a fitted effect of over 45% in size;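 on activity change, negative = inhibition: 0% = vehicle wells and -100% = peptide control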
Details: AlphaScreen AMA1-biotinylated RON2 peptide binding; activity change, negative = inhibition: at 58.2 µM (top of the series) unless noted
Summary of the method: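 AMA1 (3D7) with his tag at 25 nM final met compounds first, then biotinylated RON2 peptide at 25 nM; detection used donor plus acceptor beads, 10 µg/mL apiece, read by AlphaScreen after 30 min at room temperature.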
Potency means the concentration at half of the fitted maximal effect; tags describe the fitted curve by direction and shape.

Compound | Potency | activity change, negative = inhibition
COc1ccc(N2CCN(C(=O)c3cc4c(s3)CCCCC4)CC2)cc1 | inconclusive [inhibitor, single point] | 
C=CCN(N=Nc1cccc([N+](=O)[O-])c1)c1cccc([N+](=O)[O-])c1 | inconclusive [inhibitor, partial curve] | 
COc1ccc(Cn2nnnc2C(c2ccc(F)cc2)N2CCN(C3CCCC3)CC2)cc1 (centres undefined) |  | inactive: -0.678%
Clc1cccc(OCCN2CCNCC2)c1 | inconclusive [inhibitor, single point] | 
CC1(C)CC(=O)C(N=Nc2ccc(C(F)(F)F)cc2[N+](=O)[O-])=C(O)C1 | inconclusive [inhibitor, partial curve] | 
COc1ccc(OC)c(NC(=O)COC(=O)COc2ccc(Nc3ccccc3)cc2)c1 | inconclusive [inhibitor, single point] | 
CN(CCCCCCCCC(=O)/C=N/O)Cc1ccccc1 |  | inactive: -0.816%
Cc1cc(=O)oc(C)c1C(=O)NCC(C)NC(=O)c1c(C)cc(=O)oc1C (centres undefined) |  | inactive: 10.1%
CN(C)CCCN(C(=O)c1sc2ccccc2c1Cl)c1nc2ccc(F)cc2s1 | inconclusive [inhibitor, partial curve] | 
CCN=C1SC(CC(=O)Nc2ccc(C(F)(F)F)cc2)C(=O)N1CC (centres undefined) |  | inactive: -0.417%
CCN1CCN(c2oc(-c3ccccc3C)nc2S(=O)(=O)c2ccccc2)CC1 | inconclusive [inhibitor, partial curve] | 
N#Cc1ccc(C(=O)Nc2ccc3ccccc3c2)cc1 | inconclusive [inhibitor, single point] | 
O=C(N/N=C/C=C\c1ccco1)c1ccccn1 | inconclusive [inhibitor, single point] | 
CCN(CC)CCNC(=O)c1cc2cc3ccc(OC)cc3nc2o1 |  | inactive: -0.979%
CN1CCN(C(=S)c2cn(Cc3cccc(F)c3)c3ccccc23)CC1 | inconclusive [inhibitor, single point] | 
COc1ccc2ccc3c(c2c1)N=C[C@]1(O3)N(C)c2ccccc2C1(C)C | inconclusive [inhibitor, single point] | 
CCCCNc1ccc2c(c1)C1CC2CCN1C(=O)OCc1ccccc1 (centres undefined) | inconclusive [inhibitor, single point] | 
CN(/N=C/c1ccc([N+](=O)[O-])o1)c1ccccc1 | active: 12.6 µM | 
CC(C)N1CCc2c(sc(NC(=S)NC(=O)c3ccccc3)c2C#N)C1 |  | inactive: -10.1%
CCN(Cc1ccccc1)C1CCN(Cc2ccc(SC)cc2)CC1 | inconclusive [inhibitor, partial curve] | 
Cc1ccc(C)c(OCC(O)CN2CCN(CCN3C(=O)c4cccc5cccc(c45)C3=O)CC2)c1 (centres undefined) | inconclusive [inhibitor, single point] | 
Cc1ccc2[nH]c(=O)c(CN(Cc3cccs3)Cc3nnnn3CC3CCCO3)cc2c1 (centres undefined) | inconclusive [inhibitor, single point] | 

Compound | Potency | activity change, negative = inhibition
Cc1c2ccccc2cc[n+]1CCCS(=O)(=O)[O-] | inconclusive [inhibitor, single point] | 
O=C(Nc1cccc(S(=O)(=O)Nc2ccc(Cl)cc2)c1)c1ccccn1 | inconclusive [inhibitor, single point] | 
CCN(Cc1ccccc1)Cc1c(F)cccc1F |  | inconclusive: -10.8% [inhibitor]
O=C(c1ccccc1)c1n[nH]c(-c2ccccc2)cc1=O |  | inactive: -0.454%
CN(C)c1ccc(NC(=O)/C=C/c2ccccc2Cl)cc1 | inconclusive [inhibitor, partial curve] | 
Cc1cc(C)c([N+](=O)[O-])cc1-c1ccc(/C=N/c2c(-c3ccco3)nc3ccccn23)o1 | inconclusive [inhibitor, partial curve] | 
COc1cc(OC)c(OC)cc1CNCCc1ccc2c(c1)OCO2 | inconclusive [inhibitor, partial curve] | 
Cc1nc2ncnn2c(N2CCN(C(c3ccccc3)c3ccccc3)CC2)c1C |  | inactive: -9.04%
COc1cc(C(c2c(NC(=O)c3ccco3)sc(C)c2C)N2CCOCC2)cc(OC)c1OC (centres undefined) | inconclusive [inhibitor, single point] | 
CCN(CC)S(=O)(=O)c1ccc(C(=O)NC2=C(C(=O)OC)SCC2)cc1 | inconclusive [inhibitor, single point] | 
Cc1cccc(/C=N/N2CCN(c3ccccc3)CC2)c1 | inconclusive [inhibitor, partial curve, poor fit] | 
CN1CCN(c2ccc(S(=O)(=O)N3CCCCC3)cc2NC(=O)/C=C/c2ccc(OC(F)F)cc2)CC1 | inconclusive [inhibitor, partial curve] | 
COc1ccccc1CNc1nc(NCc2ccccc2OC)c2sccc2n1 | inconclusive [inhibitor, single point] | 
COc1ccc(COC(=O)c2ccc(Cl)c(S(=O)(=O)N3CC(C)OC(C)C3)c2)cc1 (centres undefined) |  | inactive: 5.35%
Cc1onc(-c2ccccc2)c1C(=O)NC(=S)Nc1sc2c(c1C#N)CCC(C)C2 (centres undefined) | inconclusive [inhibitor, single point] | 
CN1/C(=C\C(=S)Nc2ccccc2)C(C)(C)c2ccccc21 | inconclusive [inhibitor, full curve] | 
O=C(N/N=C/c1cc(Cl)cc([N+](=O)[O-])c1O)c1ccccc1NS(=O)(=O)c1cccs1 | inconclusive [inhibitor, full curve] | 
Cc1ccc(Nc2nc3ccccc3[nH]2)nc1 | inconclusive [inhibitor, full curve, poor fit] | 
O=C(NCCn1cc(SCC(=O)N2CCOCC2)c2ccccc21)c1c(F)cccc1F |  | inactive: -8.54%
CC(C)=CC(=O)Nc1ccccc1C(N)=O | active: 6.7 µM | 
Cc1cccc(OCC(O)CN2CC3(C)CC2CC(C)(C)C3)c1 (centres undefined) | inconclusive [inhibitor, single point] | 
O=[N+]([O-])c1cc(F)c(N2CCCCC2)cc1Br | inconclusive [inhibitor, partial curve] | 
